This is one part of the list.
B1: PhoQ; a variant is named by its letters at X, in order, P23837 (parent)
chain: MKKLLRLFFPLSLRVRFLLATAAVVLVLSLAYGMVALIGYSVSFDKTTFRLLRGESNLFYTLAKWENNKLHVELPENIDKQSPTMTLIYDENGQLLWAQRDVPWLMKMIQPDWLKSNGFHEIEADVNDTSLLLSGDHSIQQQLQEVREDDDDAEMTHSVAVNVYPATSRMPKLTIVVVDTIPVELKSSYMVWSWFIYVLSANLLLVIPLLWVAAWWSLRPIEALAKEVRELEEHNRELLNPATTRELTSLVRNLNRLLKSERERYDKYRTTLTDLTHSLKTPLXXLQXXLRSLRSEKMSVSDAEPVMLEQISRISQQIGYYLHRASMRGGTLLSRELHPVAPLLDNLTSALNKVYQRKGVNISLDISPEISFVGEQNDFVEVMGNVLDNACKYCLEFVEISARQTDEHLYIVVEDDGPGIPLSKREVIFDRGQRVDTLRPGQGVGLAVAREITEQYEGKIVAGESMLGGARMEVIFGRQHSAPKDE

Variants of: B1
Assay: enrichment ratio after two sorts for PhoP signalling (ratio (wild type AVST 3.29)); higher = more functional
Details: with PhoP (E. coli)

Variant	enrichment ratio
ACPN	≤ 0.25
TSKW	≤ 0.25
PNDT	≤ 0.25
LEKM	≤ 0.25
TSQA	7.54
AGIP	≤ 0.25
QCCA	≤ 0.25
YVWC	≤ 0.25
NFTM	≤ 0.25
GNAW	≤ 0.25
IVCE	≤ 0.25
WFCA	≤ 0.25
LWNG	≤ 0.25
WTSN	≤ 0.25
EYIY	≤ 0.25
HSQL	3.85
TSAT	11.6
FHLF	≤ 0.25
EHSP	≤ 0.25
MARE	≤ 0.25
IQEV	≤ 0.25
MCGK	≤ 0.25
ESPS	≤ 0.25
QMEG	≤ 0.25

Variant	enrichment ratio
WVWF	≤ 0.25
LNMS	≤ 0.25
NIYR	≤ 0.25
THVW	≤ 0.25
NLDT	≤ 0.25
SHEI	≤ 0.25
QILY	≤ 0.25
MVVR	≤ 0.25
KSLR	≤ 0.25
RDTL	≤ 0.25
AEYF	≤ 0.25
HQHY	≤ 0.25
ATWN	≤ 0.25
NTLS	≤ 0.25
RLSM	≤ 0.25
VFFD	≤ 0.25
LHLD	≤ 0.25
NHGS	≤ 0.25
WNAK	≤ 0.25
HDIS	≤ 0.25
CFCC	≤ 0.25
IEQK	≤ 0.25
LESV	≤ 0.25
QVFD	≤ 0.25

Variant	enrichment ratio
SFMT	≤ 0.25
VSHN	≤ 0.25
SMIC	≤ 0.25
DLAD	≤ 0.25
ILHM	≤ 0.25
TGHW	≤ 0.25
MRSL	≤ 0.25
KPTR	≤ 0.25
FGLK	1.96
NWAY	≤ 0.25
RDYY	≤ 0.25
QQPY	≤ 0.25
AVAC	4.94
QTVM	≤ 0.25
QYTS	≤ 0.25
IGTS	≤ 0.25
RLIS	≤ 0.25
VVWK	≤ 0.25
HILA	≤ 0.25
WSQV	≤ 0.25
SKTE	≤ 0.25
ACYT	≤ 0.25
TIIH	≤ 0.25
PHPH	≤ 0.25

Variant	enrichment ratio
VLCC	≤ 0.25
ESAV	2.02
YDNG	≤ 0.25
DGDT	≤ 0.25
RCPG	≤ 0.25
DDVD	≤ 0.25
FKNA	≤ 0.25
SAHD	≤ 0.25
YGIQ	≤ 0.25
MATK	≤ 0.25
SFAL	≤ 0.25
GLGE	≤ 0.25
WTKG	≤ 0.25
HWVL	≤ 0.25
NSIQ	≤ 0.25
RDQR	≤ 0.25
PDDL	≤ 0.25
SLTF	12.2
VRIC	≤ 0.25
GWGY	≤ 0.25
TQTC	18.9
DRVA	≤ 0.25
GAPP	≤ 0.25
KYRY	≤ 0.25

Variant	enrichment ratio
YYHW	≤ 0.25
SEWN	7.57
NMKE	≤ 0.25
HNKD	≤ 0.25
DHLP	≤ 0.25
PAQF	≤ 0.25
MLAT	≤ 0.25
VTHN	≤ 0.25
YLVK	≤ 0.25
IMNQ	≤ 0.25
ISMD	≤ 0.25
VFEG	0.318
PARS	≤ 0.25
FACI	0.59
KQAN	≤ 0.25
QIMH	≤ 0.25
SCDK	≤ 0.25
AIFV	≤ 0.25
DTWC	≤ 0.25
VPAN	≤ 0.25
LYFW	≤ 0.25
MEGL	6.83
WGRK	≤ 0.25
EKFM	≤ 0.25

Variant	enrichment ratio
QYTW	≤ 0.25
LICN	≤ 0.25
MIDL	3.03
NKME	≤ 0.25
RHKY	≤ 0.25
ETYE	≤ 0.25
NKCF	≤ 0.25
VSDC	≤ 0.25
LWCI	≤ 0.25
WGHY	≤ 0.25
YNSW	≤ 0.25
QTAA	≤ 0.25
ANYV	≤ 0.25
VMFQ	≤ 0.25
PRGG	≤ 0.25
WFFD	≤ 0.25
SVDF	≤ 0.25
EEFQ	≤ 0.25
PNNH	≤ 0.25
KQTS	≤ 0.25
PCVM	≤ 0.25
YSCY	≤ 0.25
PRGR	≤ 0.25
GFAD	≤ 0.25

Variant	enrichment ratio
WKLP	≤ 0.25
TWIR	≤ 0.25
MGEN	≤ 0.25
AYSH	≤ 0.25
LWIT	≤ 0.25
KACW	≤ 0.25
FESC	≤ 0.25
LKSK	≤ 0.25
AAHR	≤ 0.25
GNTT	2.98
RLGC	≤ 0.25
HNQD	≤ 0.25
NWYT	≤ 0.25
ALCI	9.33
YFTP	≤ 0.25
LVHW	≤ 0.25
LTKV	≤ 0.25
ARNS	≤ 0.25
YTQH	≤ 0.25
RGKD	≤ 0.25
YGVS	0.253
YLVG	≤ 0.25
AASQ	3.49
QWGS	≤ 0.25

Variant	enrichment ratio
PIKN	≤ 0.25
YDCI	≤ 0.25
QSGY	6.88
WRWD	≤ 0.25
AEAY	39.2
QFRH	≤ 0.25
WMLT	≤ 0.25
RWQS	≤ 0.25
ESHL	≤ 0.25
LLVA	≤ 0.25
PADF	≤ 0.25
SLTN	7.41
TKFW	≤ 0.25
VYII	≤ 0.25
QLHN	≤ 0.25
RRQD	≤ 0.25
SYVL	≤ 0.25
HVEG	≤ 0.25
TWEG	≤ 0.25
IFQP	≤ 0.25
RLPK	≤ 0.25
IKYY	≤ 0.25
DIMY	≤ 0.25
EEPF	≤ 0.25

Variant	enrichment ratio
LHGA	≤ 0.25
VLGY	≤ 0.25
RCPD	≤ 0.25
RARD	≤ 0.25
GYEF	≤ 0.25
YTVT	≤ 0.25
VAGD	≤ 0.25
AFSI	≤ 0.25
DMQV	≤ 0.25
VYPK	≤ 0.25
YGNA	≤ 0.25
FQAS	≤ 0.25
RMQH	≤ 0.25
GHNS	≤ 0.25
LDDW	≤ 0.25
MQPA	≤ 0.25
IQHG	≤ 0.25
IRAE	≤ 0.25
WAKR	≤ 0.25
KDTD	≤ 0.25
SAWP	≤ 0.25
FQHR	≤ 0.25
AHRE	≤ 0.25
EMSP	≤ 0.25

Variant	enrichment ratio
HKKP	≤ 0.25
WQWV	≤ 0.25
LICV	≤ 0.25
AYRM	≤ 0.25
LTRP	≤ 0.25
HNGA	≤ 0.25
QCKI	≤ 0.25
QDDP	≤ 0.25
CSMS	≤ 0.25
PYEM	≤ 0.25
YIFS	≤ 0.25
WYYI	≤ 0.25
VFSW	≤ 0.25
HHIR	≤ 0.25
IGHT	≤ 0.25
SKEG	≤ 0.25
DTTT	≤ 0.25
FNQF	≤ 0.25
YTLI	12.8
NLGI	≤ 0.25
VSDT	≤ 0.25
LKEQ	≤ 0.25
GTCH	4.08
NDGM	≤ 0.25

Variant	enrichment ratio
DRAQ	≤ 0.25
EGLA	≤ 0.25
NFTL	≤ 0.25
YCSW	≤ 0.25
KLYF	≤ 0.25
LHLA	≤ 0.25
ECSE	≤ 0.25
VVFY	≤ 0.25
PPKT	≤ 0.25
YAGR	≤ 0.25
REWF	≤ 0.25
MFHI	≤ 0.25
NTVR	≤ 0.25
TSKS	≤ 0.25
NVLS	≤ 0.25
KFMP	≤ 0.25
YKDT	≤ 0.25
LFQA	≤ 0.25
ICAQ	≤ 0.25
PIDD	≤ 0.25
YSPN	≤ 0.25
NTFS	≤ 0.25
PFFI	≤ 0.25
YWPD	≤ 0.25

Variant	enrichment ratio
GYWI	≤ 0.25
EHRM	≤ 0.25
PGIC	≤ 0.25
NCSH	≤ 0.25
DYID	≤ 0.25
VQHR	≤ 0.25
AQSR	≤ 0.25
HDKR	≤ 0.25
VSQE	≤ 0.25
TARP	≤ 0.25
MSRT	≤ 0.25
DLHS	≤ 0.25
MDFK	≤ 0.25
KEVE	≤ 0.25
FPKE	≤ 0.25
PWKW	≤ 0.25
TWYI	≤ 0.25
PYFN	≤ 0.25
IKKV	≤ 0.25
PEVL	≤ 0.25
GHQC	≤ 0.25
DVFR	≤ 0.25
IQGM	≤ 0.25
TPGS	≤ 0.25

Variant	enrichment ratio
ATTH	8.31
EYII	≤ 0.25
NEQS	≤ 0.25
PWCF	≤ 0.25
HIAC	≤ 0.25
EAWW	≤ 0.25
IEVN	≤ 0.25
RCMA	≤ 0.25
WWVF	≤ 0.25
MFDQ	≤ 0.25
YMGQ	≤ 0.25
ISIM	≤ 0.25
HHTV	≤ 0.25
NDGQ	≤ 0.25
VFVP	≤ 0.25
KPWQ	≤ 0.25
TFAF	≤ 0.25
PTKA	≤ 0.25

From a collection of fitness landscapes (doi:10.1126/science.1257360)
